Test results published in PubChem BioAssay AID2147 (National Center for Advancing Translational Sciences (NCATS), 2009).
Among all 230,000 compounds or so, about 3,600 (1.6%) were called active. Inconclusive results, whose numbers are uncertain, are shown with a selection of clear calls. The call rests on the fitted dose curve; in most records, active means well fitted inhibition curve with a large enough effect (not every such curve was filed as active); inconclusive means small, poorly fitted or top-dose-only effect, or another doubt; inactive means no such curve, though single readings can be large or run the other way. Where the call is inconclusive, the potency comes from a doubtful curve fit.

Molecular target: Lysine-specific demethylase 4E (Homo sapiens) (UniProt B2RXH2)
Chain of UniProt B2RXH2 (B2RXH2 whole entry, looked up, the tested form may be a part): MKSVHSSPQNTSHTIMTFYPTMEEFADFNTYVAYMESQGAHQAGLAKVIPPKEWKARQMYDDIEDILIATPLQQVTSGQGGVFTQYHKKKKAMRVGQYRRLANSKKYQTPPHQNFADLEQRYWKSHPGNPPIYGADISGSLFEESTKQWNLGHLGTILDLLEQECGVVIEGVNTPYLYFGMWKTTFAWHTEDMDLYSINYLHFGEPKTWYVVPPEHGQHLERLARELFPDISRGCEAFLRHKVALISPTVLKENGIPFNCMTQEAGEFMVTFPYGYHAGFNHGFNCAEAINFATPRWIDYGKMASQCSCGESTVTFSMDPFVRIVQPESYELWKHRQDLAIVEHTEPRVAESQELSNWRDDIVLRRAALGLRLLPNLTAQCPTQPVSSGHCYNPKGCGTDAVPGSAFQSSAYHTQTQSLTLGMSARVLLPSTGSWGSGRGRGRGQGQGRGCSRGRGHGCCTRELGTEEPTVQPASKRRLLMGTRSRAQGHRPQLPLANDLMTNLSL
Assay: qHTS Assay for Inhibitors of Human Jumonji Domain Containing 2E (JMJD2E)
Conditions: JMJD2E catalytic domain, FDH-coupled NADH fluorescence (FDH is formaldehyde dehydrogenase); series mostly up to 57.1 µM
Further: nearly all actives have a fitted effect of over 50% in size.
Potency means the concentration at half of the fitted maximal effect; tags describe the fitted curve by direction and shape.

Row | SMILES | Potency
1 | CCn1c(SCC(=O)Nc2cccc(C)n2)nc2c1c(=O)n(C)c(=O)n2C | inactive
2 | CC(C)Sc1nc2[nH]ncc2c(=O)[nH]1 | inactive
3 | O=C(NCc1ccco1)c1cc2nc(-c3cccs3)cc(C(F)(F)F)n2n1 | inconclusive: 31.6 µM [inhibitor, partial curve]
4 | COC(=O)/C=C/c1cnc2ccccc2c1 | inconclusive: 28.2 µM [inhibitor, partial curve]
5 | CCOC(=O)N1CCC(NC(=O)C2CCCN(C(=O)N3CCOc4ccccc43)C2)CC1 (stereo not given) | inactive
6 | O=[N+]([O-])c1ccc(/C=N/Nc2nc(N3CCCC3)nc(N3CCCC3)n2)o1 | inconclusive: 11.2 µM [inhibitor, partial curve]
7 | CCOC(=O)c1oc2ccccc2c1NC(=O)c1cccs1 | inconclusive: 31.6 µM [inhibitor, single point]
8 | O=C(O)c1ccc2c(c1)N(Cc1ccccc1)C(=O)c1ccccc1S2=O (stereo not given) | inactive
9 | CSCCC(N=Cc1c(O)n(-c2ccc(F)cc2)c(=O)[nH]c1=O)C(=O)O (stereo not given) | inconclusive: 25.1 µM [inhibitor, single point]
10 | C#CCn1c(=NC(=O)CN2C(=O)CCC2=O)sc2cccc(OC)c21 | inconclusive: 31.6 µM [inhibitor, partial curve]
11 | CNc1ccccc1C(=O)OC | active: 22.4 µM
12 | C/C(=N\OCC(=O)N/N=C/c1ccc(C)cc1O)c1cccs1 | inconclusive: 31.6 µM [inhibitor, single point]
13 | CN1C(=O)c2ccc(NC(=O)C3CCCCC3)cc2C1=O | inconclusive: 28.2 µM [inhibitor, partial curve]
14 | S=c1[nH]nc(-c2ccc3ccccc3n2)n1-c1ccc2ncccc2c1 | inactive
15 | O=C(O)c1c2c(nc3ccc(S(=O)(=O)N4CCC(C(=O)N5CCCCC5)CC4)cc13)CCCC2 | inconclusive: 39.8 µM [inhibitor, single point]
16 | CSc1sc(C(=O)NNC(=O)c2ccc(Cl)cc2)c2c1C=CCC2 | inconclusive: 28.2 µM [inhibitor, single point]
17 | O=C(C1=C[C@@H](C2CC2)C[C@@H](OCCCCO)O1)N1CCOCC1 | inactive
18 | COc1ccc(CCn2c(N)c(C(=O)NCc3ccco3)c3nc4ccccc4nc32)cc1OC | inconclusive: 28.2 µM [inhibitor, partial curve]
19 | Cc1ccc2cc(CN(CCCN(C)C)C(=O)NCc3ccccc3)c(=O)[nH]c2c1C | inconclusive: 35.5 µM [inhibitor, single point]
20 | Cc1cc(F)ccc1S(=O)(=O)Nc1ccccc1C(=O)Nc1ccc2[nH]c(=O)[nH]c2c1 | inconclusive: 39.8 µM [inhibitor, single point]
